Data taken from PubChem BioAssay AID540317 (National Center for Advancing Translational Sciences (NCATS), 2011).
Values joined by “and” are separate entries in the source; they are usually repeats but may differ in a detail not shown here. Equal values may be shown once. About 2,200 (0.56%) of roughly 390,000 compounds were called active. The inconclusive results got no clear call from the source; some entries with a clear call stand among them for comparison. The call rests on the fitted dose curve; in most records, active means well fitted inhibition curve with a large enough effect; inconclusive means small, poorly fitted or top-dose-only effect; inactive means no such curve, though single readings can be large or run the other way. Potencies of inconclusive entries are doubtful fits and often do not repeat.
Further: nearly all actives have a fitted effect of over 70% in size.
Potency means the concentration at half of the fitted maximal effect; tags describe the fitted curve by direction and shape.

What follows are molecules tested against Chromobox protein homolog 1 (Homo sapiens) (UniProt P83916) (assay: HTS for Inhibitors of HP1-beta Chromodomain Interactions with Methylated Histone Tails). Conditions: AlphaScreen HP1-beta / biotin-H3K9me3 peptide binding; series mostly up to 114 µM; activity change, negative = inhibition: at the top concentration.
Chain of UniProt P83916 (P83916 whole entry, looked up): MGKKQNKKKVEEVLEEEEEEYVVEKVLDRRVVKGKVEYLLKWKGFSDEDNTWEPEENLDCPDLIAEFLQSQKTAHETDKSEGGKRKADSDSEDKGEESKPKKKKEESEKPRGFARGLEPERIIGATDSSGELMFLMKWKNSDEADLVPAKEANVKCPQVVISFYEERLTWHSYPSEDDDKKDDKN
Outline: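 Compound inhibition of the preformed complex between 50 nM HP1-beta and 50 nM biotinylated H3K9me3 peptide was read by AlphaScreen. Buffer was PBS pH 7.4 with 0.01% Tween-20. Incubations ran 30 min at room temperature, with 10 ug/mL donor/acceptor beads.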
In the case of `Cc1ccc2c(Cl)c(Cc3ccccc3)c(=S)[nH]c2n1`, the Potency is reported as inconclusive: 15.8 µM [inhibitor, full curve].
With `CCn1nc(C)c(/C=N/NC(=S)Nc2ccc(Cl)cc2Cl)c1C` the “activity change, negative = inhibition” value was inactive: 7.43%.
With `CCOC(=O)C(Cc1ccccc1)NC(=O)CCc1c(C)nc2nc(C)nn2c1C` (configuration not stated) the Potency was inconclusive: 39.8 µM [inhibitor, single point].
In the case of `CN(C)C(=S)c1ccc(N(C)C)cc1`, the Potency is reported as inconclusive: 25.1 µM [inhibitor, single point].
`COc1cccc(-n2c(-c3ccccc3F)nc3c(cnn3-c3ccc(C)cc3)c2=O)c1` was tested, and the “activity change, negative = inhibition” value was inactive: 3.7%.
`Clc1cccc(CN2CCSCC2)c1` was tested, and the Potency was inconclusive: 56.2 µM [inhibitor, partial curve, poor fit].
In the case of `S=C(NCCCc1cnc[nH]1)NCCCN(CCc1ccc(Cl)cc1)c1ccc(Br)cn1`, the Potency is reported as inconclusive: 39.8 µM [inhibitor, partial curve].
With `O=c1cc(-c2ccccc2)[nH]n2cnnc12` the “activity change, negative = inhibition” value was inactive: 35.4%.
With `CN1c2cccc3cccc(c23)N(C)C1(C)C` the Potency was inconclusive: 56.2 µM [inhibitor, partial curve, poor fit].
`O=C1CCC(=O)N1c1ccccc1-c1ccccc1` was tested, and the “activity change, negative = inhibition” value was inactive: 27.4%.
In the case of `CCOc1ccccc1NS(=O)(=O)c1ccc2[nH]c3c(c2c1)CCCCC3`, the Potency is reported as inconclusive: 70.8 µM [inhibitor, partial curve].
With `C/C(CC(=O)Nc1ccc(N(C)C)cc1)=N\NC(=O)c1ccccn1` the Potency was inconclusive: 28.2 µM [inhibitor, single point].
With `CC(C)NCCOCCOc1ccccc1F` the Potency was inconclusive: 56.2 µM [inhibitor, partial curve, poor fit].
In the case of `CCN(CC)CCC(c1ccc(N(C)C)cc1)c1c(OC)cc(OC)c2c1OC(=O)CC2c1ccc(OC)cc1` (configuration not stated), the Potency is reported as inconclusive: 17.8 µM [inhibitor, full curve, poor fit].
With `CCOc1cc(C2c3c(oc4cc(C)cc(C)c4c3=O)C(=O)N2CCO)ccc1O` (configuration not stated) the “activity change, negative = inhibition” value was inactive: 37.5%.
In the case of `COc1ccc(Br)cc1CN1CCN(S(=O)(=O)Cc2ccccc2)CC1`, the Potency is reported as inconclusive: 22.4 µM [inhibitor, partial curve].
For `CCOC(=O)c1sc(NC(=O)Nc2ccccc2Cl)cc1C`, the “activity change, negative = inhibition” value was inactive: 18.6%.
With `CN(C)c1oc(-c2ccc(COc3ccccc3)o2)nc1C#N` the Potency was inconclusive: 12.6 µM [inhibitor, full curve, poor fit].
In the case of `S=c1[nH]nc(-c2ccccn2)n1/N=C/c1cccc2ccccc12`, the Potency is reported as inconclusive: 39.8 µM [inhibitor, partial curve].
With `CC(OC(=O)CC1CCCCC1)C(=O)Nc1ccc(F)cc1` (configuration not stated) the “activity change, negative = inhibition” value was inactive: 3.65%.
For `O=C(CN1N=C(C(F)(F)F)CC1(O)c1ccc([N+](=O)[O-])cc1)c1ccccc1` (configuration not stated), the Potency was inconclusive: 56.2 µM [inhibitor, partial curve, poor fit].
For `CN(C)c1ccc2c(c1)OC(N)=C(C#N)C2c1cccc(F)c1` (configuration not stated), the Potency was inconclusive: 17.8 µM [inhibitor, partial curve, poor fit].
In the case of `S=C(N/N=C/c1ccco1)NC1CC2CCC1C2` (configuration not stated), the Potency is reported as inconclusive: 50.1 µM [inhibitor, partial curve].
In the case of `COc1cc2c(cc1OC)CN(C(=O)c1ccc(N3CCCC3)c([N+](=O)[O-])c1)CC2`, the Potency is reported as inconclusive: 50.1 µM [inhibitor, single point].
In the case of `CCOc1cc(/C=C2\C(=O)NN(c3ccccc3)C2=O)cc([N+](=O)[O-])c1O`, the Potency is reported as active: 39.8 µM.
`C[n+]1c(-c2ccccc2)cc2c(=Cc3ccc([N+](=O)[O-])cc3)c3ccccc3n21` was tested, and the Potency was inconclusive: 56.2 µM [inhibitor, single point].
For `O=C(O)c1ccc(CNCc2c(Cl)cccc2Cl)cc1`, the “activity change, negative = inhibition” value was inactive: 7.76%.
For `O=C(O)Cc1sc(-c2ccc(Cl)cc2)nc1-c1ccccc1`, the Potency was inconclusive: 39.8 µM [inhibitor, single point].
`COc1cc(-c2nc(=S)[nH][nH]2)cc(OC)c1OC` was tested, and the Potency was inconclusive: 31.6 µM [inhibitor, single point].
`S=C(NCCCc1cnc[nH]1)NCCCN(CCc1ccccc1)c1ccc(Br)cn1` was tested, and the Potency was inconclusive: 31.6 µM [inhibitor, full curve] and inconclusive: 50.1 µM [inhibitor, partial curve].
With `CC(C)CC(=O)N1CCN(Cc2ccccc2Cl)CC1` the Potency was inconclusive: 15.8 µM [inhibitor, partial curve, poor fit].
`CC(=O)c1ccc(NC(=O)CN2C(=O)CCc3cc(S(=O)(=O)N4CCC(C)CC4)ccc32)cc1` was tested, and the Potency was inconclusive: 70.8 µM [inhibitor, partial curve].
In the case of `CCOC(=O)C1=C(C)N=C2SC(C(=O)OC)=CC(=O)N2C1c1ccc(OC)cc1` (configuration not stated), the Potency is reported as inconclusive: 44.7 µM [inhibitor, partial curve, poor fit].
In the case of `COc1cccc(NC(=O)CN(C)CC(=O)Nc2ccc(Cl)cc2[N+](=O)[O-])c1`, the Potency is reported as inconclusive: 39.8 µM [inhibitor, partial curve].
`Cc1ccc(-c2nc3cnccn3c2Nc2ccc(C(C)C)cc2)o1` was tested, and the Potency was inconclusive: 50.1 µM [inhibitor, partial curve].
For `CCOc1ccc(CN2CCN(S(=O)(=O)c3ccc(NC(C)=O)cc3)CC2)cc1OC`, the Potency was inconclusive: 50.1 µM [inhibitor, partial curve].
In the case of `Nc1ccccc1Nc1cccc(C(F)(F)F)c1`, the Potency is reported as inconclusive: 50.1 µM [inhibitor, partial curve].
In the case of `CNC(=O)c1cc(Cl)c(OC)c(OC)c1`, the Potency is reported as inconclusive: 8.91 µM [inhibitor, full curve, poor fit].
With `CCN(CC)S(=O)(=O)c1cccc(-c2n[nH]c(=S)n2C)c1` the Potency was inconclusive: 89.1 µM [inhibitor, single point].
In the case of `CC(C)OC(=O)c1c(NC(=O)c2cc3nc(-c4ccccc4)cc(C(F)(F)F)n3n2)sc2c1CCCC2`, the “activity change, negative = inhibition” value is reported as inactive: -5.81%.
In the case of `COC(=O)/C(C#N)=C/c1c(N2CCN(c3ccc(OC)cc3)CC2)nc2c(C)cccn2c1=O`, the Potency is reported as inconclusive: 11.2 µM [inhibitor, partial curve, poor fit].
`COC(=O)CN1C(=S)N(c2ccc(Cl)cc2)C(=O)C1CC(=O)Nc1ccc(F)cc1` (configuration not stated) was tested, and the “activity change, negative = inhibition” value was inactive: 13.8%.
With `CCOP(=O)(OCC)C(Nc1cccc([N+](=O)[O-])c1)c1ccc(N(C)C)cc1` (configuration not stated) the Potency was inconclusive: 31.6 µM [inhibitor, partial curve, poor fit].
In the case of `COc1ccc(/C=N/NC(=O)c2cc(O)c(O)c(O)c2)cc1Cn1cc([N+](=O)[O-])cn1`, the Potency is reported as inconclusive: 10 µM [inhibitor, full curve, poor fit].
In the case of `CCn1c(SCC(=O)NC(=O)NCc2ccco2)nc2sc(C)c(C)c2c1=O`, the “activity change, negative = inhibition” value is reported as inactive: 42.1%.
In the case of `COc1cccc(N2CCN(C(=O)c3nc(-c4ccc(Cl)cc4)n4c3CCCCC4)CC2)c1`, the Potency is reported as inconclusive: 31.6 µM [inhibitor, partial curve].
For `O=S(=O)(NCc1ccco1)c1ccc(S(=O)(=O)N2CCCC2)cc1`, the “activity change, negative = inhibition” value was inactive: 7.54%.
`CCc1cccc(C)c1Nc1c(-c2cccc(O)c2)nc2sccn12` was tested, and the Potency was inconclusive: 20 µM [inhibitor, full curve].
With `Cc1cc(C)nc(SCC(=O)NNS(=O)(=O)c2ccc(C#N)cc2)n1` the Potency was inconclusive: 56.2 µM [inhibitor, single point].
For `C/C(=N\N1CCN(Cc2ccccc2Cl)CC1)c1ccc([N+](=O)[O-])cc1`, the Potency was inconclusive: 25.1 µM [inhibitor, partial curve].
For `COc1ccc(/C=C2\CCC(C3CCCC3)C2=O)c(OC)c1OC` (configuration not stated), the “activity change, negative = inhibition” value was inactive: 30.9%.
In the case of `COC(=O)C1C(=O)C2=C(CC1C)NC(C)=C(C(=O)OC1CCCCC1)C2c1ccc(N(C)C)cc1` (configuration not stated), the Potency is reported as inconclusive: 17.8 µM [inhibitor, full curve].
In the case of `O=C(CSc1ccc(-c2cccnc2)nn1)Nc1ccccc1F`, the “activity change, negative = inhibition” value is reported as inactive: 14.9%.
For `CCOc1ccc2nc(NC(=S)N(C)C)sc2c1`, the Potency was inconclusive: 15.8 µM [inhibitor, full curve, poor fit].
With `O=S(=O)(Nc1ccc(N2CCOCC2)cc1)c1c(F)cc(F)cc1Br` the Potency was inconclusive: 79.4 µM [inhibitor, single point].
With `O=C(CN1C(=O)c2cccc3cccc1c23)Nc1cccc(F)c1` the “activity change, negative = inhibition” value was inactive: 28.7%.
`C=CCc1ccccc1OCC(=O)N/N=C/c1ccc(OC(C)=O)cc1OC(C)=O` was tested, and the “activity change, negative = inhibition” value was inactive: 25.6%.
`Cc1ccccc1/C=C/C1=NCCN1` was tested, and the Potency was inconclusive: 28.2 µM [inhibitor, partial curve].
For `Oc1ccc(/C=N/NC(=S)Nc2cccnc2)c(O)c1O`, the Potency was active: 5.01 µM.
For `COc1cc(/C=N/Nc2ccc(Cl)nn2)cc(OC)c1O`, the Potency was inconclusive: 79.4 µM [inhibitor, partial curve, poor fit].
With `CCOC(=O)C1=C(CSc2nc(C)cc(C)c2C#N)OC(N)=C(C#N)C1c1cccs1` (configuration not stated) the Potency was inconclusive: 70.8 µM [inhibitor, partial curve].
With `CCOC(=O)[C@H]1[C@H]2COc3ccc(C)cc3[C@@H]2N2C(=O)c3cc(Br)ccc3NC(=O)[C@@]12C` the “activity change, negative = inhibition” value was inactive: 23.1%.
For `CCOc1ccc(N(CC)C(=O)CCS(=O)(=O)c2cccc3nonc23)cc1`, the “activity change, negative = inhibition” value was inactive: 8.43%.
For `CCC(=O)Nc1nc2nc(C)cc(=O)n2[nH]1`, the “activity change, negative = inhibition” value was inactive: 4.77%.
`CCOC(=O)C1CCN(c2cc3c(cc2NC(=O)c2cc(OC)ccc2Br)n(C)c(=O)n3C)CC1` was tested, and the Potency was inconclusive: 44.7 µM [inhibitor, partial curve].
`O=Cc1cccn1-c1cccc([N+](=O)[O-])c1` was tested, and the Potency was inconclusive: 44.7 µM [inhibitor, partial curve, poor fit].
In the case of `S=C(NNC(=S)Nc1ccccc1)Nc1ccccc1`, the Potency is reported as inconclusive: 7.94 µM [inhibitor, full curve].
